# Reference: the supplement of paper PMC8728848
# Some of the results follow.
# B1: HFR-1 (Triticum aestivum) (protein)
# chain: MSPQSFTLETTTTTPAAKGSDPSYFQSAPACHEMIQHKELLLHLYAYQNVQKTPDANQAVIVESKRPECFGILAANDWTVYDGPAHNANLVAHAQGLHLGASMAKENWFICFNMVFVNQRFTGSSFKVMGDFQGTAHNGEWAIVGGTGEFAYAQGVIAFKKTQQSERNARMELHVRAMCLSFLRPLLSLGDGSAVAKIGPWGKMSGELLDIPSTPQRLERITIRHGVVIDSLAFSFIDKAGEPYNVGPWGGRRGDNKDTIELAPSEIVTEVSGTVGIFAEDNVEYNAIASLTITTNHRPYGPFGETQSTPFSVPVQDNNNIVGFFACAGKYVEALGVYVRSPVST
# Assays:
# Assay in all cases: glycan array binding signal (z-score within array); higher = stronger binding
# Settings in all cases: glycan notation: IUPAC condensed, linker removed
# Fuc(a1-2)Gal = target: Fuc(a1-2)Gal
# Outline: (§1)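 The Consortium for Functional Glycomics database supplied 3228 glycan arrays, of which those lacking an available protein sequence were dropped. The binding signal, a within-array Z-score, was averaged across arrays of the same protein sequence and across linkers. Negative scores can be read as non-binding.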
# Fuc(a1-2)Gal(b1-3)GalNAc = target: Fuc(a1-2)Gal(b1-3)GalNAc
# Outline: as §1
# [1] = target: Fuc(a1-2)Gal(b1-3)GalNAc(b1-3)Gal
# Outline: as §1
# [2] = target: Fuc(a1-2)Gal(b1-3)GalNAc(b1-3)Gal(a1-4)Gal(b1-4)Glc
# Outline: as §1
# [3] = target: Fuc(a1-2)Gal(b1-3)GalNAc(b1-4)[Neu5Ac(a2-3)]Gal(b1-4)Glc
# Outline: as §1
# Fuc(a1-2)Gal(b1-3)GlcNAc = target: Fuc(a1-2)Gal(b1-3)GlcNAc
# Outline: as §1
# [4] = target: Fuc(a1-2)Gal(b1-3)GlcNAc(b1-3)Gal(b1-4)Glc
# Outline: as §1
# [5] = target: Fuc(a1-2)Gal(b1-3)[Fuc(a1-4)]GlcNAc
# Outline: as §1
# Fuc(a1-2)Gal(b1-4)Glc = target: Fuc(a1-2)Gal(b1-4)Glc
# Outline: as §1
# Fuc(a1-2)Gal(b1-4)Glc6S = target: Fuc(a1-2)Gal(b1-4)Glc6S
# Outline: as §1
# Fuc(a1-2)Gal(b1-4)GlcNAc = target: Fuc(a1-2)Gal(b1-4)GlcNAc
# Outline: as §1
# [6] = target: Fuc(a1-2)Gal(b1-4)GlcNAc(b1-3)Gal(b1-4)GlcNAc
# Outline: as §1
# [7] = target: Fuc(a1-2)Gal(b1-4)GlcNAc(b1-3)Gal(b1-4)GlcNAc(b1-3)Gal(b1-4)GlcNAc
# Outline: as §1
# [8] = target: Fuc(a1-2)Gal(b1-4)GlcNAc6S
# Outline: as §1
# [9] = target: Fuc(a1-2)Gal(b1-4)[Fuc(a1-3)]GlcNAc
# Outline: as §1
# [10] = target: Fuc(a1-2)Gal(b1-4)[Fuc(a1-3)]GlcNAc(b1-3)Gal(b1-4)[Fuc(a1-3)]GlcNAc
# Outline: as §1
# [11] = target: Fuc(a1-2)Gal(b1-4)[Fuc(a1-3)]GlcNAc(b1-3)Gal(b1-4)[Fuc(a1-3)]GlcNAc(b1-3)Gal(b1-4)[Fuc(a1-3)]GlcNAc
# Outline: as §1
# Fuc(a1-2)Gal6S(b1-4)Glc = target: Fuc(a1-2)Gal6S(b1-4)Glc
# Outline: as §1
# [12] = target: Fuc(a1-2)Gal6S(b1-4)Glc6S
# Outline: as §1
# [13] = target: Fuc(a1-2)Gal6S(b1-4)GlcNAc
# Outline: as §1
# Fuc(a1-2)[Gal(a1-3)]Gal = target: Fuc(a1-2)[Gal(a1-3)]Gal
# Outline: as §1
# [14] = target: Fuc(a1-2)[Gal(a1-3)]Gal(b1-3)GlcNAc
# Outline: as §1
# [15] = target: Fuc(a1-2)[Gal(a1-3)]Gal(b1-4)Glc
# Outline: as §1
# [16] = target: Fuc(a1-2)[Gal(a1-3)]Gal(b1-4)GlcNAc
# Outline: as §1
# [17] = target: Fuc(a1-2)[Gal(a1-3)]Gal(b1-4)[Fuc(a1-3)]GlcNAc
# Outline: as §1
# [18] = target: Fuc(a1-2)[Gal(a1-4)]Gal(b1-4)GlcNAc
# Outline: as §1
# [19] = target: Fuc(a1-2)[GalNAc(a1-3)]Gal
# Outline: as §1
# [20] = target: Fuc(a1-2)[GalNAc(a1-3)]Gal(b1-3)GlcNAc
# Outline: as §1
# [21] = target: Fuc(a1-2)[GalNAc(a1-3)]Gal(b1-4)Glc
# Outline: as §1
# [22] = target: Fuc(a1-2)[GalNAc(a1-3)]Gal(b1-4)GlcNAc
# Outline: as §1
binder,measurement,setting,value
B1,glycan array binding signal (z-score),Fuc(a1-2)Gal,-0.129
same,glycan array binding signal (z-score),Fuc(a1-2)Gal(b1-3)GalNAc,-0.223
same,glycan array binding signal (z-score),[1],-0.186
same,glycan array binding signal (z-score),[2],-0.113
same,glycan array binding signal (z-score),[3],-0.215
same,glycan array binding signal (z-score),Fuc(a1-2)Gal(b1-3)GlcNAc,-0.211
same,glycan array binding signal (z-score),[4],0.059
same,glycan array binding signal (z-score),[5],-0.201
same,glycan array binding signal (z-score),Fuc(a1-2)Gal(b1-4)Glc,-0.132
same,glycan array binding signal (z-score),Fuc(a1-2)Gal(b1-4)Glc6S,-0.212
same,glycan array binding signal (z-score),Fuc(a1-2)Gal(b1-4)GlcNAc,-0.204
same,glycan array binding signal (z-score),[6],-0.206
same,glycan array binding signal (z-score),[7],-0.22
same,glycan array binding signal (z-score),[8],-0.21
same,glycan array binding signal (z-score),[9],-0.213
same,glycan array binding signal (z-score),[10],0.009
same,glycan array binding signal (z-score),[11],-0.203
same,glycan array binding signal (z-score),Fuc(a1-2)Gal6S(b1-4)Glc,-0.2
same,glycan array binding signal (z-score),[12],-0.128
same,glycan array binding signal (z-score),[13],-0.21
same,glycan array binding signal (z-score),Fuc(a1-2)[Gal(a1-3)]Gal,-0.171
same,glycan array binding signal (z-score),[14],-0.188
same,glycan array binding signal (z-score),[15],0.715
same,glycan array binding signal (z-score),[16],-0.178
same,glycan array binding signal (z-score),[17],-0.225
same,glycan array binding signal (z-score),[18],-0.222
same,glycan array binding signal (z-score),[19],-0.225
same,glycan array binding signal (z-score),[20],-0.105
same,glycan array binding signal (z-score),[21],-0.226
same,glycan array binding signal (z-score),[22],-0.225
